# According to patent US20030219400A1 (priority 2002, published 2003):
# Tested on: Post-Lyme Disease Syndrome (PLDS) patients
# Settings: Case 6; both taken for an additional 21 days
compound,measurement,value
CCc1ccc(CCOc2ccc(CC3SC(=O)NC3=O)cc2)nc1 (stereo not shown) [pioglitazone],tolerability of CSM with pioglitazone,"without recurrence of intensification, evidence of hypoglycemia or abnormalities in liver function tests"
